# Assay results as given in paper PMC4336329 (PLoS ONE, 2015).
# Out of some 310,000 compounds screened, about 2,200 (0.71%) showed an effect of 50% or more. Effects have a minus sign here. The list shows a part of the results.
# Biological target: human ether-à-go-go-related gene (hERG) potassium channel (human, UniProt Q12809)
# Experiment: primary screen, population patch clamp on CHO cells stably expressing hERG
# Sequence of human ether-à-go-go-related gene (hERG) potassium channel (Q12809 whole entry, looked up): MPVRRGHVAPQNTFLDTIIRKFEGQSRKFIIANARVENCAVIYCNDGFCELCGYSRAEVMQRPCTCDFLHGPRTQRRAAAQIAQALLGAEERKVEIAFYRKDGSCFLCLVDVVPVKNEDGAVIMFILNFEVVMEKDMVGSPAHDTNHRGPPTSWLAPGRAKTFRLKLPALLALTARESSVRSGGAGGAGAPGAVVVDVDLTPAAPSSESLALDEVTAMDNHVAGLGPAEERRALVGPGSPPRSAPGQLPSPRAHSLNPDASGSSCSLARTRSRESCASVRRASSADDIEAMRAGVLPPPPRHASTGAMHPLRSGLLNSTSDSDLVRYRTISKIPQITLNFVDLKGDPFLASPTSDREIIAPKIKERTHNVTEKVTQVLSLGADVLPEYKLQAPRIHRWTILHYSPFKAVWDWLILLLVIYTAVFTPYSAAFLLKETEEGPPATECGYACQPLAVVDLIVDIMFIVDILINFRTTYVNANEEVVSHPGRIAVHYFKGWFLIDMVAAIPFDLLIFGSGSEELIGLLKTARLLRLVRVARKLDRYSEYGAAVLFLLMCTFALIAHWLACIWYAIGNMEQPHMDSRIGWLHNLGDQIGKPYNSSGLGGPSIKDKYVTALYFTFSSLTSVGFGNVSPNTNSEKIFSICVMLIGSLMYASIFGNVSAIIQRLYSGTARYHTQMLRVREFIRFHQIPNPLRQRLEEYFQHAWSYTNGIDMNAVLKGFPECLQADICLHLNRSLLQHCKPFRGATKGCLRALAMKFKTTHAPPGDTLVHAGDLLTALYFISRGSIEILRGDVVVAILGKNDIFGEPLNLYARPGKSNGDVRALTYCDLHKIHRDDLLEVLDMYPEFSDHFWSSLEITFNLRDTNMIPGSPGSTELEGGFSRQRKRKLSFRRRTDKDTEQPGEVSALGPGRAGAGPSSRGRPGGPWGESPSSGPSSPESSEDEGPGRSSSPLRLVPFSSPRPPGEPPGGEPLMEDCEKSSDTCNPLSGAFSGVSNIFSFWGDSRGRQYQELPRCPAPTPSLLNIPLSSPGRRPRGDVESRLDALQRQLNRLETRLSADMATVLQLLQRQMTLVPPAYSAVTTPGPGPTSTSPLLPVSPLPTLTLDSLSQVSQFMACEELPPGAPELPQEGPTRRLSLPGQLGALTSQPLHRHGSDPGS
row,SMILES,"hERG current change (%, negative = inhibition) at 1uM"
1,O=C(Nc1ccc(-c2nc3ccccc3s2)c(O)c1)C1=COCCO1,-36.8%
2,CCCCc1noc2c1/C(=N\O)CC(c1ccccc1)C2 (stereo not shown),9.36%
3,CC(NC(=O)c1ccc2c(c1)OCO2)c1ccccc1 (stereo not shown),11.3%
4,O=C(c1ccccc1)N1CCN(c2ncnc3c2cnn3-c2ccccc2)CC1,0.304%
5,CN(Cc1ccccc1)c1nc2c(c(=O)[nH]c(=O)n2C)n1Cc1ccccc1,-0.783%
6,CC(=O)c1cccc(NC(=O)COC(=O)C2=COCCO2)c1,5.89%
7,Cc1ccc(CN(C)C(=O)c2cccc(S(=O)(=O)N3CCCC3)c2)cc1,9.28%
8,O=C1CC[C@H](O)CCN1[C@H](CSc1ccc(Br)cc1)Cc1ccccc1,10.3%
9,Cc1ccc(C)c(S(=O)(=O)N2CCCN(C)CC2)c1,6.2%
10,COc1ccc(CCNC(=O)c2ccc(CNS(=O)(=O)c3ccc(C(C)(C)C)cc3)cc2)cc1OC,8.5%
11,COc1ccc([N+](=O)[O-])cc1N(CC(=O)O)S(C)(=O)=O,14.7%
12,COc1ccc(O)c(-c2cc(-c3cccc(Br)c3)n[nH]2)c1,7.15%
13,CC(CCc1ccccc1)NC(=O)CNC(=O)c1ccccc1Br (stereo not shown),8.29%
14,O=C(CCC(=O)c1ccc(F)cc1)Nc1cccc(C(F)(F)F)c1,13.1%
15,CS(=O)(=O)N1CCCC(C(=O)NCCN2CCC(Cc3ccccc3)CC2)C1 (stereo not shown),4.48%
16,O=C(COC(=O)Cc1ccc(Br)cc1)NC1CCCCC1,6.19%
17,CCOC(=O)N1CCc2c(sc3nc4n(c(=O)c23)N=C(c2ccc(OC)cc2)CS4)C1,13.3%
18,CC1(C)CC(=O)C2=C(C1)N(CC1CCCO1)C(=O)C2(NC(=O)c1cccnc1)C(F)(F)F (stereo not shown),6.32%
19,Cc1cccc(Cl)c1NC(=S)N1CCN(c2ccc([N+](=O)[O-])cn2)CC1,-0.825%
20,Br.COc1ccc(-n2cc(-c3ccc(Cl)cc3)[nH]c2=S)cc1,8.55%
21,COc1ccc(-c2nnc(SCC(=O)N3CCCCC3)o2)c(OC)c1,9.16%
22,Cc1cc(C)cc(OCc2nnc(SCC(=O)N3CCN(c4ccccc4)CC3)o2)c1,7.04%
23,COc1ccc(S(=O)(=O)N2CCN(c3ccccc3)CC2)cc1C(=O)N1CCCC1,4.29%
24,N#CC1=C(N)Oc2n[nH]c(-c3cccs3)c2C1c1ccccc1C(=O)O (stereo not shown),4.41%
25,C=CCc1ccc(OCC(O)CN2CCN(Cc3ccc(Cl)cc3)CC2)c(OC)c1.Cl (stereo not shown),-55.3%
26,COC(=O)C1=C(CSc2nccn2C)NC(=O)NC1c1cc(C)ccc1C (stereo not shown),8.84%
27,CCc1ccc(OCC(=O)NNC(=O)C2CCN(c3ncnc4sc(C)c(C)c34)CC2)cc1,11.3%
28,Cc1ccc(C(C(=O)NCc2ccc(F)cc2)N(C(=O)c2csnn2)C2CC2)o1 (stereo not shown),-13.6%

row,SMILES,"hERG current change (%, negative = inhibition) at 1uM"
1,COc1cc(OC)cc(C(=O)N2CCC(N3CCCCCC3)CC2)c1,-2.49%
2,COCCn1c(Cc2cccn2C)nnc1SCC(=O)NCc1ccc2c(c1)OCO2,10.4%
3,Cn1c(=S)c2[nH]c(SCCN3CCCC3)nc2n(C)c1=O,12.2%
4,O=C(Nc1ccc(C(=O)N2CCOCC2)cc1)c1cc(-c2cccnc2)nc2ccc(Br)cc12,5.09%
5,CC(C)C(=O)Nc1ccccc1C(=O)OCC(=O)c1ccc2c(c1)OCCO2,-3.04%
6,COc1ccc(C(=O)OC2CC3CCC(C2)[N+]3(C)[O-])cc1OC (stereo not shown),10.2%
7,O=C(Cc1cccc(F)c1)Nc1ccc2c(c1)CCC2,20.8%
8,O=S(=O)(Nc1cccnc1Cl)c1ccc2c(c1)OCCO2,13.9%
9,COc1ccc(-c2cc(C(=O)Nc3cc(Cl)ccc3OC)no2)cc1,18%
10,O=C(NCCN1C(=O)C2C3C=CC(C3)C2C1=O)NCc1ccccc1 (stereo not shown),11.6%
11,COc1cc(NC(=O)CN(c2cc(C)cc(C)c2)S(=O)(=O)c2c(C)[nH]c(=O)[nH]c2=O)cc(OC)c1,3.15%
12,Cc1ccc(N(C(=O)CCCC(=O)Nc2ccccn2)C(C(=O)NC2CCCC2)c2ccc(O)cc2)cc1C (stereo not shown),12%
13,O=C(COc1ccc2c(c1)CCC2)NCc1ccccc1,2.11%
14,CCOc1ccc(N=Nc2c(C)[nH]n(-c3ccccc3)c2=O)cc1,19.8%
15,CN=CC1=C(O)CC(C)(C)CC1=O,11.9%
16,C=CCN(c1ccccc1C(=O)O)S(=O)(=O)c1ccc(NC(=O)OC)cc1,7.24%
17,Cc1ccc(C)c(N2CCN(C(=O)c3cccn4c(=O)c5sccc5nc34)CC2)c1,3.84%
18,O=c1c(Cc2c(F)cccc2Cl)c(O)ccn1Cc1ccc2c(c1)OCO2,10.8%
19,NC(=O)NCCCC(NC(=O)c1ccc(C#CC2(O)CCCCC2)cc1)C(=O)O (stereo not shown),8.16%
20,Cc1ccc(-c2csc(NC(=O)CN3CCOCC3)n2)cc1,4.56%
21,O=[N+]([O-])c1ccc(N2CCN(S(=O)(=O)c3ccccc3)CC2)cc1NCc1cccnc1,5.1%
22,O=C(N/N=C1/CCSC1)c1cc(Br)ccc1O,15.3%
23,Cc1cc(C)c(OCC(=O)Nc2cc(C(=O)O)cc(C(=O)O)c2)cc1C,28.2%
24,Cc1ccc(F)cc1NC(=O)c1cccc(N(C)C)c1,-2.18%
25,COC(=O)CC1Sc2ccccc2NC1=O (stereo not shown),11.1%
26,COc1ccc(CCNC(=O)COC(=O)Cc2ccc(OC)cc2)cc1,9.03%
27,CCCc1ccc(C(=O)NNC(=O)c2ccc(Cl)cc2)cc1,-1.76%
